Experimental findings from the supplement of paper PMC12217912 are described below.

First the molecules themselves.
B1: TEV protease; numbered along this chain (parent)
chain: MGESLFKGPRDYNPISSSICHLTNESDGHTTSLYGIGFGPFIITNKHLFRRNNGTLVVQSLHGVFKVKDTTTLQQHLVDGRDMIIIRMPKDFPPFPQKLKFREPQREERICLVTTNFQTKSMSSMVSDTSCTFPSGDGIFWKHWIQTKDGQCGSPLVSTRDGFIVGIHSASNFTNTNNYFTSVPKNFMELLTNQEAQQWVSGWRLNADSVLWGGHKVFMVKPEEPFQPVKEATQL

Some of the results follow. Sequences were assembled here from the parent chain. Values near 0.05 are background.

In this test the parent is B1. As to the kind of experiment: raw area under fraction-flipped curve 0-4 h after induction (AUC4h, not background-subtracted), DNA-recorder readout of cleavage of the substrate (dimensionless); higher = more cleavage of the substrate by the protease variant. The following applies: temperature: 34 °C; time window: 0-4 h after rhamnose induction. The protocol: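 In vivo DNA recorder in E. coli TOP10(DE3) ΔrhaA at 34 °C. Each TEVp single-site mutant (parent TEVp 0) is paired with a single-site variant of the 7-mer TEVs (canonical ENLYFQ|S). The substrate sits between flexible linkers in a Bxb1-sfGFP-TEVs-SsrA fusion, so cleavage stabilises Bxb1 and speeds flipping of a recombination array, read by NGS. The value is the raw area under the fraction-flipped curve over 0-4 h after rhamnose induction (AUC4h), with ≥20 reads per time point. It is not background-subtracted; inactive controls average about 0.047.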
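Note: Bxb1 expression induced with 0.2% (w/v) L-rhamnose at OD600 near 0.5, cultures sampled hourly, flipped fraction per protease–substrate barcode pair counted by paired-end Illumina sequencing.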

MGESLFKGPRDYNPISSSICHLTNESDGHTTSLYGIGFGPFIITNKHLFRRNNGTLVVQSLHGVFKVKDTTTLQQHLVDGRDMIIIRMPKDFPPFPQKLKFREPQREERICLVTTNFQTKSMSSMVSDTSCTFPSGDGIFWKHWIQTKDGQCGSELVSTRDGFIVGIHSASNFTNTNNYFTSVPKNFMELLTNQEAQQWVSGWRLNADSVLWGGHKVFMVKPEEPFQPVKEATQL [P155E]: the “area with substrate EALYFQS” value is 0.0359, the “area with substrate ECLYFQS” value worked out at 0.0515, the “area with substrate EDLYFQS” value is 0.0201 and the “area with substrate EGLYFQS” value worked out at 0.0612. Also, the “area with substrate EHLYFQS” value is 0.0233, the “area with substrate EILYFQS” value was 0.048, the “area with substrate EKLYFQS” value amounted to 0.0332 and the “area with substrate EMLYFQS” value amounted to 0.0575. In addition, the “area with substrate EPLYFQS” value is 0.0231, the “area with substrate EQLYFQS” value was 0.0425, the “area with substrate ERLYFQS” value came out at 0.0487 and the “area with substrate ESLYFQS” value came to 0.0445. The “area with substrate EVLYFQS” value stood at 0.0751 and the “area with substrate EWLYFQS” value was 0.0474.
In the case of MGESLFKGPRDYNPISSSICHLTNESDGHTTSLYGIGFGPFIITNKHLFRRNNGTLVVQSLHGVFKVKDTTTLQQHLVDGRDMIIIRMPKDFPPFPQKLKFREPQREERICLVTTNFQTKSMSSMVSDTSCTFPSGDGIFWKHWIQTKDGQCGSMLVSTRDGFIVGIHSASNFTNTNNYFTSVPKNFMELLTNQEAQQWVSGWRLNADSVLWGGHKVFMVKPEEPFQPVKEATQL [P155M], the “area with substrate EALYFQS” value stood at 0.0937, the “area with substrate ECLYFQS” value came to 0.0622, the “area with substrate EDLYFQS” value came out at 0.0731 and the “area with substrate EELYFQS” value is 0.0866. Besides, the “area with substrate EGLYFQS” value turned out to be 0.0588, the “area with substrate EILYFQS” value was 0.0685, the “area with substrate ELLYFQS” value was 0.0601 and the “area with substrate EMLYFQS” value amounted to 0.0699. Further, the “area with substrate EQLYFQS” value worked out at 0.0779, the “area with substrate ERLYFQS” value is 0.072, the “area with substrate ESLYFQS” value was determined as 0.0815 and the “area with substrate EVLYFQS” value was found to be 0.0679. The “area with substrate EYLYFQS” value was 0.0791.
For the variant MGESLFKGPRDYNPISSSICHLTNESDGHTTSLYGIGFGPFIITNKHLFRRNNGTLVVQSLHGVFKVKDTTTLQQHLVDGRDMIIIRMPKDFPPFPQKLKFREPQREERICLVTTNFQTKSMSSMVSDTSCTFPSGDGIFWKHWIQTKDGQCGSFLVSTRDGFIVGIHSASNFTNTNNYFTSVPKNFMELLTNQEAQQWVSGWRLNADSVLWGGHKVFMVKPEEPFQPVKEATQL [P155F], the “area with substrate EALYFQS” value came to 0.0503, the “area with substrate ECLYFQS” value stood at 0.0585, the “area with substrate EDLYFQS” value worked out at 0.058 and the “area with substrate EFLYFQS” value turned out to be 0.0777. Moreover, the “area with substrate EGLYFQS” value was 0.0597, the “area with substrate EILYFQS” value is 0.0518, the “area with substrate EKLYFQS” value came out at 0.0375 and the “area with substrate EPLYFQS” value was found to be 0.0661. Moreover, the “area with substrate EQLYFQS” value was found to be 0.0551, the “area with substrate ESLYFQS” value stood at 0.0591 and the “area with substrate EVLYFQS” value was determined as 0.0543.
As for MGESLFKGPRDYNPISSSICHLTNESDGHTTSLYGIGFGPFIITNKHLFRRNNGTLVVQSLHGVFKVKDTTTLQQHLVDGRDMIIIRMPKDFPPFPQKLKFREPQREERICLVTTNFQTKSMSSMVSDTSCTFPSGDGIFWKHWIQTKDGQCGSPLVSTRDGFHVGIHSASNFTNTNNYFTSVPKNFMELLTNQEAQQWVSGWRLNADSVLWGGHKVFMVKPEEPFQPVKEATQL [I164H], the “area with substrate EALYFQS” value was 0.0565, the “area with substrate ECLYFQS” value stood at 0.0384, the “area with substrate EDLYFQS” value was determined as 0.0621 and the “area with substrate EFLYFQS” value came to 0.0317. Moreover, the “area with substrate EGLYFQS” value is 0.0612, the “area with substrate EKLYFQS” value is 0.0534, the “area with substrate EMLYFQS” value amounted to 0.0666 and the “area with substrate EPLYFQS” value was 0.0597. For the same variant, the “area with substrate ERLYFQS” value amounted to 0.0561, the “area with substrate ESLYFQS” value is 0.0455, the “area with substrate ETLYFQS” value is 0.0492 and the “area with substrate EVLYFQS” value came to 0.04.
MGESLFKGPRDYNPISSSICHLTNESDGHTTSLYGIGFGPFIITNKHLFRRNNGTLVVQSLHGVFKVKDTTTLQQHLVDGRDMIIIRMPKDFPPFPQKLKFREPQREERICLVTTNFQTKSMSSMVSDTSCTFPSGDGIFWKHWIQTKDGQCGSPLVSTRDGFEVGIHSASNFTNTNNYFTSVPKNFMELLTNQEAQQWVSGWRLNADSVLWGGHKVFMVKPEEPFQPVKEATQL [I164E]: the “area with substrate EALYFQS” value was determined as 0.0698, the “area with substrate ECLYFQS” value is 0.0427, the “area with substrate EDLYFQS” value was 0.0613 and the “area with substrate EELYFQS” value stood at 0.0557. Also, the “area with substrate EILYFQS” value was 0.0522, the “area with substrate EKLYFQS” value was found to be 0.0497, the “area with substrate ELLYFQS” value is 0.0452 and the “area with substrate EPLYFQS” value was 0.0279. Besides, the “area with substrate EQLYFQS” value was found to be 0.0541, the “area with substrate ESLYFQS” value stood at 0.0444, the “area with substrate EVLYFQS” value is 0.049 and the “area with substrate EWLYFQS” value came to 0.046. Besides, the “area with substrate EYLYFQS” value was determined as 0.0525.
For the variant MGESLFKGPRDYNPISSSICHLTNESDGHTTSLYGIGFGPFIITNKHLFRRNNGTLVVQSLHGVFKVKDTTTLQQHLVDGRDMIIIRMPKDFPPFPQKLKFREPQREERICLVTTNFQTKSMSSMVSDTSCTFPSGDGIFWKHWIQTKDGQCGSPLVSTRDGFLVGIHSASNFTNTNNYFTSVPKNFMELLTNQEAQQWVSGWRLNADSVLWGGHKVFMVKPEEPFQPVKEATQL [I164L], the “area with substrate EALYFQS” value came to 0.11, the “area with substrate ECLYFQS” value was determined as 0.108, the “area with substrate EELYFQS” value came to 0.1 and the “area with substrate EFLYFQS” value came out at 0.0852. The “area with substrate EHLYFQS” value was determined as 0.129, the “area with substrate EILYFQS” value turned out to be 0.0928, the “area with substrate EKLYFQS” value stood at 0.0771 and the “area with substrate ELLYFQS” value was determined as 0.0843. Further, the “area with substrate EQLYFQS” value stood at 0.0955, the “area with substrate ERLYFQS” value worked out at 0.0991, the “area with substrate ESLYFQS” value is 0.0999 and the “area with substrate EVLYFQS” value came to 0.0823. Also, the “area with substrate EWLYFQS” value was 0.0792 and the “area with substrate EYLYFQS” value worked out at 0.099.
Turning to MGESLFKGPRDYNPISSSICHLTNESDGHTTSLYGIGFGPFIITNKHLFRRNNGTLVVQSLHGVFKVKDTTTLQQHLVDGRDMIIIRMPKDFPPFPQKLKFREPQREERICLVTTNFQTKSMSSMVSDTSCTFPSGDGIFWKHWIQTKDGQCGSPLVSTADGFIVGIHSASNFTNTNNYFTSVPKNFMELLTNQEAQQWVSGWRLNADSVLWGGHKVFMVKPEEPFQPVKEATQL [R160A], the “area with substrate EALYFQS” value was 0.118, the “area with substrate EDLYFQS” value turned out to be 0.116, the “area with substrate EFLYFQS” value is 0.104 and the “area with substrate EGLYFQS” value worked out at 0.0915. Also, the “area with substrate EILYFQS” value worked out at 0.103, the “area with substrate EKLYFQS” value amounted to 0.124, the “area with substrate ELLYFQS” value turned out to be 0.095 and the “area with substrate EMLYFQS” value came to 0.107. Also, the “area with substrate EPLYFQS” value was determined as 0.108, the “area with substrate ERLYFQS” value amounted to 0.0974, the “area with substrate ESLYFQS” value was 0.109 and the “area with substrate ETLYFQS” value is 0.11. The “area with substrate EYLYFQS” value came out at 0.0936.
On to MGESLFKGPRDYNPISSSICHLTNESDGHTTSLYGIGFGPFIITNKHLFRRNNGTLVVQSLHGVFKVKDTTTLQQHLVDGRDMIIIRMPKDFPPFPQKLKFREPQREERICLVTTNFQTKSMSSMVSDTSCTFPSGDGIFWKHWIQTKDGQCNSPLVSTRDGFIVGIHSASNFTNTNNYFTSVPKNFMELLTNQEAQQWVSGWRLNADSVLWGGHKVFMVKPEEPFQPVKEATQL [G153N], for which the “area with substrate EALYFQS” value amounted to 0.0547, the “area with substrate ECLYFQS” value stood at 0.0477, the “area with substrate EDLYFQS” value was 0.0324 and the “area with substrate EELYFQS” value is 0.0567. Moreover, the “area with substrate EFLYFQS” value is 0.0855, the “area with substrate EHLYFQS” value stood at 0.0449, the “area with substrate EKLYFQS” value stood at 0.0467 and the “area with substrate ELLYFQS” value stood at 0.0513. Also, the “area with substrate EMLYFQS” value turned out to be 0.0538, the “area with substrate EPLYFQS” value came out at 0.0384 and the “area with substrate ESLYFQS” value amounted to 0.0439.
Turning to MGESLFKGPRDYNPISSSICHLTNESDGHTTSLYGIGFGPFIITNKHLFRRNNGTLVVQSLHGVFKVKDTTTLQQHLVDGRDMIIIRMPKDFPPFPQKLKFREPQREERICLVTTNFQTKSMSSMVSDTSCTFPSGDGIFWKHWIQTKDGQCYSPLVSTRDGFIVGIHSASNFTNTNNYFTSVPKNFMELLTNQEAQQWVSGWRLNADSVLWGGHKVFMVKPEEPFQPVKEATQL [G153Y], the “area with substrate EALYFQS” value stood at 0.059, the “area with substrate ECLYFQS” value stood at 0.0326, the “area with substrate EDLYFQS” value is 0.0288 and the “area with substrate EELYFQS” value worked out at 0.047. Also, the “area with substrate EKLYFQS” value came out at 0.0527, the “area with substrate ERLYFQS” value was determined as 0.0608, the “area with substrate ESLYFQS” value turned out to be 0.0914 and the “area with substrate EVLYFQS” value is 0.0626.
